By IC50 is meant the dose at which the fit gives 50% viability; a fit beyond the top or the lowest dose is shown as a bound at that dose. For AUC the same curve is integrated over the 256-fold range of doses and scaled to a fraction; the more sensitive the line, the further below 1. For some assays here: Any top dose called inferred comes from the curve model; the source does not state it. For some assays here: Where an entry number is given, a second screen of the drug exists; the two often differ.
Columns and labels:
Experiment in all cases: Viability of human cancer cell lines after 72 h of drug (GDSC screen)
[1] = compound: Cc1ccc(NC(=O)c2cccc(C(C)(C)C#N)c2)cc1Nc1ccc2ncn(C)c(=O)c2c1 [AZ628]; conditions: top dose 4 µM; top dose inferred
Method: (§1)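 Human cancer cell lines in 384-well plates, medium with 10% serum, drug for 72 h over a 256-fold dose range (nine 2-fold or five 4-fold steps up to the top dose). Adherent lines were fixed and stained with the nucleic acid dye Syto60, suspension lines read with resazurin; signal relative to control wells, capped at 0 and 100%. One two-parameter sigmoid per drug and line, fitted in a mixed model over all curves with the slope shared within a line.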

[2] = compound: N#CC(c1ccnc(NCCc2cccnc2)n1)c1nc2ccccc2s1 [AS601245]; conditions: top dose 8 µM; top dose inferred
Method: as §1

[3] = compound: Nc1ccc(C(=O)Nc2cccc(-c3nc(N4CCOCC4)c4oc5ncccc5c4n3)c2)cn1 [YM201636]; conditions: top dose 5.12 µM; top dose inferred
Method: as §1

[4] = compound: NC(=O)C1CCCc2c1[nH]c1ccc(Cl)cc21 [EX-527]; conditions: top dose 20 µM
Method: as §1

[5] = compound: Cn1cnc2c(F)c(Nc3ccc(Br)cc3Cl)c(C(=O)NOCCO)cc21 [AZD6244]; conditions: top dose 4 µM; screen: GDSC drug entry 1498; top dose inferred
Method: as §1

Row | Cell Line | AUC [1] | IC50 [1] [µM] | AUC [2] | IC50 [2] [µM] | AUC [3] | IC50 [3] [µM] | AUC [4] | IC50 [4] [µM] | AUC [5] | IC50 [5] [µM]
1 | KGN (ovary, adherent) | 0.79 | 2.22 | 0.766 | 3.56 | 0.802 | 3.16 | 0.97 | > 20 | 0.902 | > 4
2 | KINGS-1 (glioma, adherent) | 0.831 | 3.99 | 0.935 | > 8 | 0.892 | > 5.12 | 0.972 | > 20 | 0.922 | > 4
3 | KM12 (large intestine, adherent) | 0.759 | 1.51 | 0.791 | 3.93 | 0.911 | > 5.12 | 0.973 | > 20 | 0.939 | > 4
4 | KM-H2 (Hodgkin lymphoma, suspension) | 0.976 | > 4 | 0.904 | 7.82 | 0.946 | > 5.12 | 0.99 | > 20 | 0.991 | > 4
5 | KMOE-2 (acute myeloid leukaemia, suspension) | 0.369 | 0.113 | 0.928 | > 8 | 0.765 | 1.69 | 0.985 | > 20 | 0.306 | 0.0764
6 | KNS-42 (glioma, adherent) | 0.943 | > 4 | 0.878 | > 8 | 0.881 | > 5.12 | 0.954 | > 20 | 0.967 | > 4
7 | KNS-81-FD (glioma, adherent) | 0.864 | > 4 | 0.937 | > 8 | 0.94 | > 5.12 | 0.973 | > 20 | 0.848 | > 4
8 | KOPN-8 (B-cell leukaemia, suspension) | 0.876 | 3.01 | 0.877 | 6.07 | 0.833 | 2.66 | 0.974 | > 20 | 0.942 | > 4
9 | KP-N-YN (neuroblastoma, adherent) | 0.867 | > 4 | 0.938 | > 8 | 0.926 | > 5.12 | 0.987 | > 20 | 0.94 | > 4
10 | KS-1 (glioma, adherent) | 0.581 | 0.441 | 0.83 | 6.79 | 0.876 | > 5.12 | 0.98 | > 20 | 0.792 | 2.33
11 | KU812 (chronic myeloid leukaemia, suspension) | 0.899 | > 4 | 0.926 | > 8 | 0.592 | 0.56 | 0.987 | > 20 | 0.563 | 0.366
12 | KURAMOCHI (ovary, adherent) | 0.887 | > 4 | 0.781 | 3.87 | 0.88 | > 5.12 | 0.984 | > 20 | 0.879 | > 4
13 | KY821 (leukaemia, suspension) | 0.968 | > 4 | 0.961 | > 8 | 0.984 | > 5.12 | 0.982 | > 20 | 0.873 | 3.03
14 | KYM-1 (rhabdomyosarcoma, adherent) | 0.878 | 3.05 | 0.881 | 6.31 | 0.97 | > 5.12 | 0.989 | > 20 | 0.973 | > 4
15 | L-363 (myeloma, suspension) | 0.97 | > 4 | 0.877 | 6.18 | 0.902 | 5.09 | 0.99 | > 20 | 0.965 | > 4
16 | L-428 (Hodgkin lymphoma, suspension) | 0.988 | > 4 | 0.905 | > 8 | 0.976 | > 5.12 | 0.991 | > 20 | 0.992 | > 4
17 | L-540 (Hodgkin lymphoma, suspension) | 0.914 | > 4 | 0.894 | 7.82 | 0.981 | > 5.12 | 0.989 | > 20 | 0.978 | > 4
18 | L-1236 (Hodgkin lymphoma, suspension) | 0.99 | > 4 | 0.941 | > 8 | 0.939 | > 5.12 | 0.991 | > 20 | 0.979 | > 4
19 | LAMA-84 (chronic myeloid leukaemia, suspension) | 0.448 | 0.18 | 0.941 | > 8 | 0.893 | > 5.12 | 0.971 | > 20 | 0.936 | > 4
20 | LAN-6 (neuroblastoma, adherent) | 0.638 | 0.647 | 0.923 | > 8 | 0.966 | > 5.12 | 0.982 | > 20 | 0.833 | 3.28
21 | LB373-MEL-D (melanoma, adherent) | 0.72 | 1.04 | 0.895 | > 8 | 0.887 | > 5.12 | 0.986 | > 20 | 0.751 | 1.29
22 | LB771-HNC (head and neck, adherent) | 0.964 | > 4 | 0.909 | > 8 | 0.911 | > 5.12 | 0.971 | > 20 | 0.855 | > 4
23 | LB831-BLC (bladder, adherent) | 0.978 | > 4 | 0.67 | 1.5 | 0.962 | > 5.12 | 0.972 | > 20 | 0.95 | > 4
24 | LB996-RCC (kidney, adherent) | 0.872 | > 4 | 0.755 | 3.11 | 0.951 | > 5.12 | 0.983 | > 20 | 0.899 | > 4
25 | LB1047-RCC (kidney, adherent) | 0.921 | > 4 | 0.672 | 1.61 | 0.882 | > 5.12 | 0.981 | > 20 | 0.74 | 1.34

Row | Cell Line | AUC [1] | IC50 [1] [µM] | AUC [2] | IC50 [2] [µM] | AUC [3] | IC50 [3] [µM] | AUC [4] | IC50 [4] [µM] | AUC [5] | IC50 [5] [µM]
26 | LB2241-RCC (kidney, adherent) | 0.906 | > 4 | 0.773 | 3.48 | 0.945 | > 5.12 | 0.983 | > 20 | 0.69 | 0.912
27 | LB2518-MEL (melanoma, adherent) | 0.116 | < 0.0156 | 0.851 | 6.61 | 0.951 | > 5.12 | 0.977 | > 20 | 0.344 | 0.09
28 | LC4-1 (lymphoblastic leukaemia, suspension) | 0.943 | > 4 | 0.8 | 4.34 | 0.718 | 1.43 | 0.954 | > 20 | 0.949 | > 4
29 | LC-2-ad (lung adenocarcinoma, adherent) | 0.833 | 2.68 | 0.802 | 4.07 | 0.891 | > 5.12 | 0.979 | > 20 | 0.936 | > 4
30 | LOUCY (T-cell lymphoblastic leukaemia, suspension) | 0.981 | > 4 | 0.86 | 4.81 | 0.771 | 1.61 | 0.992 | > 20 | 0.948 | > 4
31 | LOXIMVI (melanoma, semi-adherent) | 0.906 | > 4 | 0.855 | 5.33 | 0.962 | > 5.12 | 0.984 | > 20 | 0.465 | 0.202
32 | LP-1 (myeloma, suspension) | 0.968 | > 4 | 0.852 | 4.61 | 0.841 | 2.72 | 0.987 | > 20 | 0.993 | > 4
33 | LS-123 (large intestine, adherent) | 0.887 | > 4 | 0.817 | 6.53 | 0.956 | > 5.12 | 0.974 | > 20 | 0.735 | 1.49
34 | LS-411N (large intestine, adherent) | 0.401 | 0.126 | 0.856 | > 8 | 0.858 | > 5.12 | 0.971 | > 20 | 0.577 | 0.426
35 | LS-513 (large intestine, adherent) | 0.871 | > 4 | 0.958 | > 8 | 0.819 | 3.07 | 0.987 | > 20 | 0.71 | 1.01
36 | LS-1034 (large intestine, adherent) | 0.936 | > 4 | 0.858 | 7.71 | 0.855 | 4.75 | 0.981 | > 20 | 0.679 | 0.835
37 | LU-134-A (small cell lung carcinoma, suspension) | 0.984 | > 4 | 0.907 | > 8 | 0.925 | > 5.12 | 0.984 | > 20 | 0.985 | > 4
38 | LU-139 (small cell lung carcinoma, suspension) | 0.949 | > 4 | 0.96 | > 8 | 0.847 | > 5.12 | 0.976 | > 20 | 0.978 | > 4
39 | LU-165 (small cell lung carcinoma, suspension) | 0.967 | > 4 | 0.946 | > 8 | 0.753 | 1.89 | 0.984 | > 20 | 0.984 | > 4
40 | LXF-289 (lung adenocarcinoma, adherent) | 0.943 | > 4 | 0.9 | > 8 | 0.959 | > 5.12 | 0.983 | > 20 | 0.86 | 3.27
41 | MC116 (B-cell lymphoma, suspension) | 0.996 | > 4 | 0.797 | 2.6 | 0.839 | 2.11 | 0.999 | > 20 | 0.998 | > 4
42 | MC-CAR (haematopoietic neoplasm, suspension) | 0.945 | > 4 | 0.83 | 4.3 | 0.795 | 2.1 | 0.989 | > 20 | 0.98 | > 4
43 | MDST8 (large intestine, adherent) | 0.811 | 2.1 | 0.956 | > 8 | 0.932 | > 5.12 | 0.978 | > 20 | 0.281 | 0.0603
44 | ME-1 (acute myeloid leukaemia, suspension) | 0.661 | 0.724 | 0.982 | > 8 | 0.917 | > 5.12 | 0.989 | > 20 | 0.877 | > 4
45 | MEG-01 (chronic myeloid leukaemia, suspension) | 0.548 | 0.335 | 0.888 | > 8 | 0.948 | > 5.12 | 0.977 | > 20 | 0.746 | 1.21
46 | MFH-ino (soft tissue, adherent) | 0.83 | 3.14 | 0.833 | 6.48 | 0.962 | > 5.12 | 0.975 | > 20 | 0.713 | 1.12
47 | MFM-223 (breast, adherent) | 0.989 | > 4 | 0.982 | > 8 | 0.982 | > 5.12 | 0.981 | > 20 | 0.969 | > 4
48 | MHH-PREB-1 (B-cell leukaemia, suspension) | 0.954 | > 4 | 0.845 | 4.91 | 0.59 | 0.548 | 0.98 | > 20 | 0.963 | > 4
49 | ML-2 (acute myeloid leukaemia, suspension) | 0.571 | 0.382 | 0.889 | 7.39 | 0.745 | 1.46 | 0.99 | > 20 | 0.588 | 0.422
50 | MLMA (hairy cell leukaemia, semi-adherent) | 0.922 | > 4 | 0.902 | > 8 | 0.671 | 0.962 | 0.979 | > 20 | 0.961 | > 4
